Among all 94,000 compounds or so, about 4,000 (4.3%) were called active. The inconclusive results got no clear call from the source; some entries with a clear call stand among them for comparison. Calls follow the shape of the dose curve; as a rule, active = well fitted inhibition curve with a large enough effect; inconclusive = small, poorly fitted or top-dose-only effect; inactive = no such curve, though single readings can be large or run the other way. Potencies of inconclusive entries are doubtful fits and often do not repeat.
Test: Cytotoxic Profiling in NIH 3T3 Cell Line of Diverse Libraries Using Quantitative High-Throughput Screening; also: nearly all actives have a fitted effect of over 55% in size
Settings: NIH 3T3 viability, CellTiter-Glo ATP luminescence, 48-72 h; series mostly up to 96.7 µM
In short: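 Luminescent ATP readout (CellTiter-Glo, 10 min RT) after 48 or 72 hr compound exposure of NIH 3T3 cells seeded at 400 cells/well in 1536-well format; quantitative HTS.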
Potency is read from the fitted curve at half-maximal effect; tags tell the direction and shape of the fitted curve.

| Compound | Potency |
| --- | --- |
| O=C(NCc1ccc(F)cc1)c1ccnc(-c2nnc3ccc(Nc4ccccc4)nn23)c1 | active: 25.1 µM |
| O=C(COc1ccccc1)N1CCC(c2nc(C3CCOCC3)no2)C1 (centres undefined) | inactive |
| CCc1nc(-c2c3n(c(=O)n(Cc4ccc(F)c(F)c4)c2=O)CCCCC3)no1 | inconclusive: 44.7 µM [inhibitor, partial curve, poor fit] |
| O=C(Nc1ccnc(Cl)c1)[C@@H]1CCCN1c1ccnc2ccnn12 | inconclusive: 44.7 µM [inhibitor, partial curve] |
| CN(c1ccc(Cl)c(Cl)c1)C1CNC1 | active: 100 µM |
| O=C1CN([S+](=O)([O-])c2ccccc2)CC(O)CN1Cc1ccc(Cl)cc1 (centres undefined) | inconclusive: 70.8 µM [inhibitor, single point] |
| COc1ccc(C(=O)N2C[C@H](C(N)=O)[C@H]3c4ccccc4N(C)C(=O)[C@]32C)cc1OC | inconclusive: 35.5 µM [inhibitor, partial curve, poor fit] |
| COc1cccc(CC(=O)N2CCCC(CN3CCCC3)CC2)c1 (centres undefined) | inactive |
| FC(F)(F)c1cccc2c(N3CCC4(CCCN4Cc4ncc[nH]4)CC3)ccnc12 | inconclusive: 50.1 µM [inhibitor, partial curve, poor fit] |
| COCC1CN(C(C)=O)CC12CCN(Cc1ccc3[nH]ccc3c1)CC2 (centres undefined) | inactive |
| COc1ccc(C(=O)N[C@H]2C[C@@H](Cc3cc(CN(C)C)on3)C2(C)C)cc1 | inactive |
| CC(C)CCN1CCCC2(C1)C(=NC1CCCC1)NC(=O)N2c1cccnc1 (centres undefined) | active: 7.08 µM |
| CCNC(=O)c1cccc2c1CCN2S(=O)(=O)c1cccc(C)c1 | inactive |
| O=C(c1ccc(C(F)(F)F)cc1)N1CCCC(C(=O)N2CCCC(c3nc4ncccc4[nH]3)C2)C1 (centres undefined) | inconclusive: 70.8 µM [inhibitor, partial curve, poor fit] |
| O=C(NC1CCCCC1)N1CCC(c2noc(-c3ccccc3)n2)C1 (centres undefined) | inconclusive: 35.5 µM [inhibitor, partial curve] |
| O=C(NC1CC1)C1CCN(C(=O)c2ccc(-c3cccs3)cc2)CC1 | inconclusive: 70.8 µM [inhibitor, partial curve, poor fit] |
| COc1ccccc1-c1ccc2c(C(=O)NCCCc3ccccc3)nn(C)c2n1 | inconclusive: 44.7 µM [inhibitor, partial curve, poor fit] |
| Fc1ccc(CN2CCn3c(nnc3-c3ccc(Cl)cc3)C2)cc1 | inconclusive: 79.4 µM [inhibitor, single point] |
| O=C(NC1CCCCC1)C1CCCN(c2cnn(Cc3ccccc3)c(=O)c2)C1 (centres undefined) | inconclusive: 44.7 µM [inhibitor, partial curve, poor fit] |
| Cc1ccc(-c2cn3cc(C(=O)NCc4cccs4)nc3s2)cc1 | inconclusive: 63.1 µM [inhibitor, partial curve, poor fit] |
| O=C(NCc1ccc2c(c1)OCO2)C1CCN(C(=O)c2ccc(-c3cncnc3)cc2)CC1 | inactive |
| Cc1cn2nc(C(=O)Nc3ccc(F)cc3C)cc2c(N(C)Cc2ccccc2)n1 | inconclusive: 39.8 µM [inhibitor, partial curve] |

| Compound | Potency |
| --- | --- |
| COCc1nc(-c2ccc(OC3CCN(C(=O)c4nn(C)c5ccccc45)C3)cc2)no1 (centres undefined) | inconclusive: 39.8 µM [inhibitor, partial curve] |
| COc1cccc(NC(=O)[C@@H]2C[C@H](c3ccc(F)cc3)N([S+](=O)([O-])C3CC3)C2)c1 | inconclusive: 100 µM [inhibitor, partial curve, poor fit] |
| COC1CCOC2(CCN(C(=O)CCc3nc4ccccc4s3)CC2)C1 (centres undefined) | inconclusive: 50.1 µM [inhibitor, partial curve, poor fit] |
| COCCN1CC(CO)C2(CCN(Cc3cccs3)CC2)C1 (centres undefined) | inactive |
| Cc1cc(C)cc(-c2ccc(CN3CCCC(NC(=O)NC4CCCC4)C3)cc2)c1 (centres undefined) | inconclusive: 70.8 µM [inhibitor, single point] |
| O=C(C1CCCN1C(=O)c1ccc(C(F)(F)F)cc1)N1CCC(c2nc3ncccc3[nH]2)CC1 (centres undefined) | inactive |
| Cn1cc(CN[C@H]2[C@H](O)[C@H](O)C[C@@H]2c2ccc(N3CCOCC3)nc2)cn1 | inactive |
| COc1cccc(-c2ccc(C(=O)N3CCC(N[S+](=O)([O-])CCC(F)(F)F)CC3)cc2)c1 | inconclusive: 50.1 µM [inhibitor, partial curve, poor fit] |
| O=C(c1ccc(CN2C(=O)NC3(CCOCC3)C2=O)cc1)N1CCc2ccccc2C1 | inactive |
| O=C(Cc1ccccn1)N1CCN(C(=O)c2cccc(-c3ccccn3)c2)CC1 | inactive |
| Cc1ccc(Nc2ccnc(N3CCCN([S+](=O)([O-])c4ccc(C)cc4)C3)n2)cc1 | inconclusive: 31.6 µM [inhibitor, full curve, poor fit] |
| COc1ccc(C(=O)N2CCC3(CC2)CC(c2nc(C)no2)N(C)C3)cc1 (centres undefined) | inactive |
| O=C(c1ccsc1)N1CCCC(CN2CCOCC2)CC1 (centres undefined) | inactive |
| Cc1nn(-c2ccccc2)c(C)c1CN1CCCCC12Cc1ccccc1CNC2=O (centres undefined) | inconclusive: 50.1 µM [inhibitor, partial curve, poor fit] |
| O=[S+]([O-])(NC1CCN(Cc2cccc(-c3cccs3)c2)CC1)c1cccc(C(F)(F)F)c1 | active: 8.91 µM |
| CC1=C(C(=O)OC(C)C)C(c2ccccc2Cl)CC(=O)N1Cc1c(F)cccc1F (centres undefined) | inconclusive: 50.1 µM [inhibitor, partial curve, poor fit] |
| O=C(Nc1ccccc1)C1CC(c2ccccc2)CN(C(=O)NCc2ccccc2)C1 (centres undefined) | inconclusive: 44.7 µM [inhibitor, partial curve, poor fit] |
| CC(C)c1noc([C@@H]2C[C@H]3C(=O)NCCCCCCN(C(=O)COc4ccc(F)cc4)[C@H]3C2)n1 | inconclusive: 39.8 µM [inhibitor, partial curve] |
| Cc1ccccc1C(=O)NCCNC(=O)c1cccc(-c2ccsc2)c1 | inconclusive: 70.8 µM [inhibitor, single point] |
| O=[S+]1([O-])NCC2(CCCN(Cc3ccc(F)cc3)C2)Oc2ncccc21 (centres undefined) | inactive |
| O=C(NC1CCCN(c2ccc3nnc(C4CC4)n3n2)C1)c1cccc(Cl)c1 (centres undefined) | inconclusive: 50.1 µM [inhibitor, partial curve, poor fit] |
| Cc1ccc(S(=O)(=O)N2CCCC(Cn3cnc4cccnc43)C2)cc1 (centres undefined) | inconclusive: 56.2 µM [inhibitor, single point] |

| Compound | Potency |
| --- | --- |
| O=S(=O)(N[C@H]1[C@H](O)[C@H](O)C[C@@H]1c1ccc(C(F)(F)F)cc1)c1ccc(F)cc1 | inconclusive: 50.1 µM [inhibitor, partial curve, poor fit] |
| O=C1CCN(C(=O)c2ccccc2)CCCC(C(=O)N2CCc3ccccc32)CCN1 (centres undefined) | inactive |
| FC(F)(F)c1ccc(N2C3CCC2CN(Cc2cccc(-c4cccs4)c2)C3)cc1 | inconclusive: 15.8 µM [inhibitor, full curve, poor fit] |
| COc1cccc(CNC(=O)c2cc(C(C)(C)C)nc3c2cnn3C)c1 | inconclusive: 56.2 µM [inhibitor, partial curve, poor fit] |
| COc1cccc(-c2cc(C3CCN(C(=O)Nc4cccc(F)c4)CC3)[nH]n2)c1 | inconclusive: 44.7 µM [inhibitor, partial curve, poor fit] |
| Cc1nn(-c2ccc(F)cc2)c(Oc2ccccc2F)c1CCC(=O)NC(C)C | inconclusive: 50.1 µM [inhibitor, partial curve, poor fit] |
| COc1ccc(CNC(=O)Cn2nc(C)c3sc(C(C)C)nc3c2=O)cc1 | inactive |
| O=C(c1cncc(Br)c1)N1CCCN(C(=O)C2CC2)c2ccccc21 | inconclusive: 70.8 µM [inhibitor, single point] |
| CNc1ccnc(N2CCC(C(=O)O)(n3cnc4ccccc43)CC2)n1 | inactive |
| COc1ccccc1CNC(=O)C1CCN(Cc2ccccc2-c2cccnc2)CC1 | inconclusive: 56.2 µM [inhibitor, partial curve, poor fit] |
| CCc1nc(-c2c3n(c(=O)n(Cc4ccc(F)cc4F)c2=O)CCCCC3)no1 | inactive |
| COc1ccc(-c2cn3cc(C(=O)NCCc4ccccc4)nc3s2)cc1 | inactive |
| Cc1nnc2ccc(N3CCN(S(=O)(=O)c4ccccc4)CC3)nn12 | inconclusive: 56.2 µM [inhibitor, partial curve, poor fit] |
| COc1ccc(C(=O)NCC2Cn3cccc3C(=O)N2Cc2ccccc2)cc1 (centres undefined) | inconclusive: 79.4 µM [inhibitor, partial curve, poor fit] |
| COCCOC1CCOC2(CCN(C(=O)c3cccs3)CC2)C1 (centres undefined) | inactive |
| Cc1ccc(-c2noc([C@@H]3CCCN3C(=O)c3cc(F)ccc3Cl)n2)cc1 | inconclusive: 50.1 µM [inhibitor, partial curve, poor fit] |
| CC(=O)N1CCc2nc(C)nc(-c3ccc(O)cc3)c2C1 | inconclusive: 100 µM [inhibitor, partial curve, poor fit] |
| COc1cccc(C(=O)NC(C(=O)N2CCCCC2)C2CCN(C(=O)c3ccc(Cl)cc3)CC2)c1 (centres undefined) | inactive |
| COc1cc(CNC(=O)c2cc(-c3ccc(Cl)cc3Cl)nc3c2cnn3C)cc(OC)c1 | inconclusive: 56.2 µM [inhibitor, partial curve, poor fit] |
| Cc1cccc(CC(=O)N2CCCC(n3cc(-c4nc(-c5ccccc5)no4)nn3)C2)c1 (centres undefined) | inconclusive: 50.1 µM [inhibitor, partial curve, poor fit] |

From PubChem BioAssay AID1345082 (National Center for Advancing Translational Sciences (NCATS), 2018)
